Patent US20230279153A1 (Regeneron, published 2023)

Columns and labels:
[1] = molecular target: T1, mouse PD1 (mouse, UniProt Q02242 25-288); assay: cell-based or functional assay
T1 sequence (looked up): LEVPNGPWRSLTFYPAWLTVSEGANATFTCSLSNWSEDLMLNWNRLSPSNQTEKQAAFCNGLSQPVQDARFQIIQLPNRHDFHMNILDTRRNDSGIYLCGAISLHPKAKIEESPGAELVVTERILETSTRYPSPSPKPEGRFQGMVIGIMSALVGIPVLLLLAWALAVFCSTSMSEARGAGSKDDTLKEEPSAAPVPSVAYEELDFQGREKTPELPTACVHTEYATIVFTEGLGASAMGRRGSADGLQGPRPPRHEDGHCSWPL

[2] = molecular target: T2, mouse CD20 (mouse, UniProt P19437 1-291); assay: flow cytometry on MC38/mCD20 cells
T2 construct: whole, on cells; also called mCD20; murine CD20
T2 sequence (looked up): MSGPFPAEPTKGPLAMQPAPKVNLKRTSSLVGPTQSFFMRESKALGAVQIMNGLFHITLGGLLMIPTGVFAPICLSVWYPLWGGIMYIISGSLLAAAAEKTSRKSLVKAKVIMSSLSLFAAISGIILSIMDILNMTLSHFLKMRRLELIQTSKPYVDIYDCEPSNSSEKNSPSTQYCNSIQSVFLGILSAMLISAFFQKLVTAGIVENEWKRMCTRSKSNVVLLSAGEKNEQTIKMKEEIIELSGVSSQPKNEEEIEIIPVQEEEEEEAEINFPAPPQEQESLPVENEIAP
Procedure: (§1) Cells (HEK 293, MC38 over-expressing mCD20 or Jurkat over-expressing mPD1) were resuspended in FACS wash (PBS with 1% FBS) at 1×10⁶ cells/mL. The staining was performed in 1×10⁵ cells per well. The antibodies were diluted with a ratio of 1:5 from a starting concentration of 1.3×10⁻⁰⁷ M. The diluted antibodies were then added into the wells containing cells. Cells were stained for 30 min at 2-8° C. and washed twice with FACS wash buffer. APC-conjugated goat anti-human IgG (Jackson Immuno Research, 109-607-003, 1:400) was added to stain the cells for 30 min at 2-8° C. Following washing, cells were fixed in 2% paraformaldehyde for 30 min at 2-8° C. After two washes, stained cells were analyzed using BD LSRFortessa™ FACS instrument. The results were analyzed by FlowJo. FSC/SSC gates were used to select mononuclear cells.

[3] = molecular target: T1, mouse PD1; assay: flow cytometry on Jurkat/mPD1 cells
Procedure: as §1

B1: 2 + 1 m20_mPL_1 (Fc fusion)
heavy 1: [letters of about 200 residues left out]GGGSGGGGSGGGGSQVQLQQPGAELVRPGTSVKLSCKASGYTFTSYWMHWIKQRPGQGLEWIGVIDPSDNYTKYNQKFKGKATLTVDTSSSTAYMQLSSLTSEDSAVYFCAREGYYGSSPWFAYWGQGTLVTVSSASTKGPSVFPLAPSSKSTSGGTAALGCLVKDYFPEPVTVSWNSGALTSGVHTFPAVLQSSGLYSLSSVVTVPSSSLGTQTYICNVNHKPSNTKVDKKVEPKSCDKTHTCPPCPAPEAEGAPSVFLFPPKPKDTLMISRTPEVTCVVVDVSHEDPEVKFNWYVDGVEVHNAKTKPREEQYNSTYRVVSVLTVLHQDWLNGKEYKCKVSNKALPSSIEKTISKAKGQPREPQVYTLPPCRDELTKNQVSLWCLVKGFYPSDIAVEWESNGQPENNYKTTPPVLDSDGSFFLYSKLTVDKSRWQQGNVFSCSVMHEALHNHYTQKSLSLSPGK
heavy 2: QVQLQQPGAELVRPGTSVKLSCKASGYTFTSYWMHWIKQRPGQGLEWIGVIDPSDNYTKYNQKFKGKATLTVDTSSSTAYMQLSSLTSEDSAVYFCAREGYYGSSPWFAYWGQGTLVTVSSASTKGPSVFPLAPSSKSTSGGTAALGCLVKDYFPEPVTVSWNSGALTSGVHTFPAVLQSSGLYSLSSVVTVPSSSLGTQTYICNVNHKPSNTKVDKKVEPKSCDKTHTCPPCPAPEAEGAPSVFLFPPKPKDTLMISRTPEVTCVVVDVSHEDPEVKFNWYVDGVEVHNAKTKPREEQYNSTYRVVSVLTVLHQDWLNGKEYKCKVSNKALPSSIEKTISKAKGQPREPQVCTLPPSRDELTKNQVSLSCAVKGFYPSDIAVEWESNGQPENNYKTTPPVLDSDGSFFLVSKLTVDKSRWQQGNVFSCSVMHEALHNRFTQKSLSLSPGK
light: QIVMSQSPAILSASPGEKVTMTCRARSSVSYIHWYQQKPGSSPKPWIYATSNLASGVPGRFSGSGSGTSYSLTITRVEAEDAATYYCQQWSSKPPTFGGGTKLEIKRTVAAPSVFIFPPSDEQLKSGTASVVCLLNNFYPREAKVQWKVDNALQSGNSQESVTEQDSKDSTYSLSSTLTLSKADYEKHKVYACEVTHQGLSSPVTKSFNRGEC
notes: Knob-into-hole heterodimer, 2 anti-mCD20 Fabs + 1 mPDL1 ectodomain
Question: What does the source list for B1?
Answer: Max % inhibition, luciferase bioassay, 2.5 nM CD3 bsAb [1]: 16%; EC50 [2]: 6.4 nM; Max MFI [2]: 39100 MFI; EC50 [3]: 124 nM; Max MFI [3]: 13400 MFI

B2: 2 + 1 m20_mPL_2 (Fc fusion)
heavy 1: QVQLQQPGAELVRPGTSVKLSCKASGYTFTSYWMHWIKQRPGQGLEWIGVIDPSDNYTKYNQKFKGKATLTVDTSSSTAYMQLSSLTSEDSAVYFCAREGYYGSSPWFAYWGQGTLVTVSSASTKGPSVFPLAPSSKSTSGGTAALGCLVKDYFPEPVTVSWNSGALTSGVHTFPAVLQSSGLYSLSSVVTVPSSSLGTQTYICNVNHKPSNTKVDKKVEPKSCDKTHTCPPCPAPEAEGAPSVFLFPPKPKDTLMISRTPEVTCVVVDVSHEDPEVKFNWYVDGVEVHNAKTKPREEQYNSTYRVVSVLTVLHQDWLNGKEYKCKVSNKALPSSIEKTISKAKGQPREPQVYTLPPCRDELTKNQVSLWCLVKGFYPSDIAVEWESNGQPENNYKTTPPVLDSDGSFFLYSKLTVDKSRWQQGNVFSCSVMHEALHNHYTQKSLSLSPGKGGGGSGGGGSGGGGS[letters of about 200 residues left out]
heavy 2: B1 heavy 2
light: B1 light
notes: Knob-into-hole heterodimer, 2 anti-mCD20 Fabs + 1 mPDL1 ectodomain at the C-terminus of Fc
Question: B2 was tested. Which “Max % inhibition, luciferase bioassay, 2.5 nM CD3 bsAb” value (from here on “Max % inhibition, luciferase bioassay”) [1] did it give?
Answer: The value was 10%.

Question: And the EC50 [2]?
Answer: The EC50 was 3.52 nM.

Question: And the “Max MFI” value [2]?
Answer: The value was 42700 MFI.

Question: And the “Max MFI” value [3]?
Answer: The value was 1190 MFI.

B3: 2 + 2 m20_mPL_1 (Fc fusion)
heavy 1: [letters of about 200 residues left out]GGGSGGGGSGGGGSQVQLQQPGAELVRPGTSVKLSCKASGYTFTSYWMHWIKQRPGQGLEWIGVIDPSDNYTKYNQKFKGKATLTVDTSSSTAYMQLSSLTSEDSAVYFCAREGYYGSSPWFAYWGQGTLVTVSSASTKGPSVFPLAPSSKSTSGGTAALGCLVKDYFPEPVTVSWNSGALTSGVHTFPAVLQSSGLYSLSSVVTVPSSSLGTQTYICNVNHKPSNTKVDKKVEPKSCDKTHTCPPCPAPEAEGAPSVFLFPPKPKDTLMISRTPEVTCVVVDVSHEDPEVKFNWYVDGVEVHNAKTKPREEQYNSTYRVVSVLTVLHQDWLNGKEYKCKVSNKALPSSIEKTISKAKGQPREPQVYTLPPCRDELTKNQVSLWCLVKGFYPSDIAVEWESNGQPENNYKTTPPVLDSDGSFFLYSKLTVDKSRWQQGNVFSCSVMHEALHNHYTQKSLSLSPGK
heavy 2: [letters of about 200 residues left out]GGGSGGGGSGGGGSQVQLQQPGAELVRPGTSVKLSCKASGYTFTSYWMHWIKQRPGQGLEWIGVIDPSDNYTKYNQKFKGKATLTVDTSSSTAYMQLSSLTSEDSAVYFCAREGYYGSSPWFAYWGQGTLVTVSSASTKGPSVFPLAPSSKSTSGGTAALGCLVKDYFPEPVTVSWNSGALTSGVHTFPAVLQSSGLYSLSSVVTVPSSSLGTQTYICNVNHKPSNTKVDKKVEPKSCDKTHTCPPCPAPEAEGAPSVFLFPPKPKDTLMISRTPEVTCVVVDVSHEDPEVKFNWYVDGVEVHNAKTKPREEQYNSTYRVVSVLTVLHQDWLNGKEYKCKVSNKALPSSIEKTISKAKGQPREPQVCTLPPSRDELTKNQVSLSCAVKGFYPSDIAVEWESNGQPENNYKTTPPVLDSDGSFFLVSKLTVDKSRWQQGNVFSCSVMHEALHNRFTQKSLSLSPGK
light: B1 light
notes: Knob-into-hole heterodimer, 2 Fabs + 2 N-terminal mPDL1 ectodomains
Question: How did the “IC50 (M), luciferase bioassay, 2.5 nM CD3 bsAb” value [1] turn out when B3 was run?
Answer: The value was 1.92e-10 M.

Question: What about the “Max % inhibition, luciferase bioassay” value [1] of the same binder?
Answer: The value was 27%.

Question: And the EC50 [2]?
Answer: The EC50 was 18.1 nM.

Question: What about the “Max MFI” value [2] of the same binder?
Answer: Its value is 31000 MFI.

Question: What about the EC50 [3] of the same binder?
Answer: Its EC50 is 2.95 nM.

Question: And the “Max MFI” value [3]?
Answer: The value was 11600 MFI.

B4: 2 + 2 m20_mPL_2 (Fc fusion)
heavy 1: QVQLQQPGAELVRPGTSVKLSCKASGYTFTSYWMHWIKQRPGQGLEWIGVIDPSDNYTKYNQKFKGKATLTVDTSSSTAYMQLSSLTSEDSAVYFCAREGYYGSSPWFAYWGQGTLVTVSSASTKGPSVFPLAPSSKSTSGGTAALGCLVKDYFPEPVTVSWNSGALTSGVHTFPAVLQSSGLYSLSSVVTVPSSSLGTQTYICNVNHKPSNTKVDKKVEPKSCDKTHTCPPCPAPEAEGAPSVFLFPPKPKDTLMISRTPEVTCVVVDVSHEDPEVKFNWYVDGVEVHNAKTKPREEQYNSTYRVVSVLTVLHQDWLNGKEYKCKVSNKALPSSIEKTISKAKGQPREPQVYTLPPCRDELTKNQVSLWCLVKGFYPSDIAVEWESNGQPENNYKTTPPVLDSDGSFFLYSKLTVDKSRWQQGNVFSCSVMHEALHNHYTQKSLSLSPGKGGGGSGGGGSGGGGS[letters of about 200 residues left out]
heavy 2: QVQLQQPGAELVRPGTSVKLSCKASGYTFTSYWMHWIKQRPGQGLEWIGVIDPSDNYTKYNQKFKGKATLTVDTSSSTAYMQLSSLTSEDSAVYFCAREGYYGSSPWFAYWGQGTLVTVSSASTKGPSVFPLAPSSKSTSGGTAALGCLVKDYFPEPVTVSWNSGALTSGVHTFPAVLQSSGLYSLSSVVTVPSSSLGTQTYICNVNHKPSNTKVDKKVEPKSCDKTHTCPPCPAPEAEGAPSVFLFPPKPKDTLMISRTPEVTCVVVDVSHEDPEVKFNWYVDGVEVHNAKTKPREEQYNSTYRVVSVLTVLHQDWLNGKEYKCKVSNKALPSSIEKTISKAKGQPREPQVCTLPPSRDELTKNQVSLSCAVKGFYPSDIAVEWESNGQPENNYKTTPPVLDSDGSFFLVSKLTVDKSRWQQGNVFSCSVMHEALHNRFTQKSLSLSPGKGGGGSGGGGSGGGGS[letters of about 200 residues left out]
light: B1 light
notes: Knob-into-hole heterodimer, 2 Fabs + 2 C-terminal mPDL1 ectodomains
Question: For B4, which “Max % inhibition, luciferase bioassay” value [1] is on record?
Answer: The value was 8%.

Question: And the EC50 [2]?
Answer: Its EC50 is 3.45 nM.

Question: And the “Max MFI” value [2]?
Answer: Its value is 37300 MFI.

Question: What about the EC50 [3] of the same binder?
Answer: The EC50 was 15.1 nM.

Question: And the “Max MFI” value [3]?
Answer: Its value is 8500 MFI.

B5: m20_mPL_1 (Fc fusion)
heavy: B1 heavy 2
light: B1 light
chain: [letters of about 200 residues left out][letters of about 250 residues left out]
Question: For B5, which “Max % inhibition, luciferase bioassay” value [1] is on record?
Answer: The value was 18%.

Question: What about the “Max MFI” value [2] of the same binder?
Answer: The value was 16800 MFI.

Question: And the “Max MFI” value [3]?
Answer: The value was 8150 MFI.
